# Measurements published in the supplement of paper PMC3334620.
# Over roughly 33,000 sequences, “E-score (-0.5 to 0.5)” has its median near -0.041; the highest 2% begin near 0.37. This is one part of the list.
# Biological target: T1, Ecm22 (UniProt Q05958)
# T1 sequence: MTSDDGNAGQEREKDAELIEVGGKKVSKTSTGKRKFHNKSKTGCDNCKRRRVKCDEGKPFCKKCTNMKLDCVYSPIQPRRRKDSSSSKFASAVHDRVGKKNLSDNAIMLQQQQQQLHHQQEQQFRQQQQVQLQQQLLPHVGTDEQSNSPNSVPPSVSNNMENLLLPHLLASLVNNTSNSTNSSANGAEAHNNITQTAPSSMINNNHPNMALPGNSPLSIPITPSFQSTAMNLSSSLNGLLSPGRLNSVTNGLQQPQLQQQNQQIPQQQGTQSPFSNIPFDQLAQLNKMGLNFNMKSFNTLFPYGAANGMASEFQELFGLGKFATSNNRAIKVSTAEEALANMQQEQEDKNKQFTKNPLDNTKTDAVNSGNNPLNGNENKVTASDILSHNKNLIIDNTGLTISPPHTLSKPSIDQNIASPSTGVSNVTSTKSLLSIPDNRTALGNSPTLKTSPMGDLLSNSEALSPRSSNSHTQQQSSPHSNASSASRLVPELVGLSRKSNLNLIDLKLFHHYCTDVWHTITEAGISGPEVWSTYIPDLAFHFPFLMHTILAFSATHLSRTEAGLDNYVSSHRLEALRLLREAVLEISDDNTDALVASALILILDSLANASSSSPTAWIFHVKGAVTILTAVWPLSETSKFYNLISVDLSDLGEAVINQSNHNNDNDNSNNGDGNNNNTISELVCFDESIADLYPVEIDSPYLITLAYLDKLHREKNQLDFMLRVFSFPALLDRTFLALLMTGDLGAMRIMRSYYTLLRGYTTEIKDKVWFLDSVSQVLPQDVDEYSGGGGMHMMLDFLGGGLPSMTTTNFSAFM
# Experiment: PBM E-score (8-mer binding enrichment) (E-score (-0.5 to 0.5)); higher = stronger / more preferred TF binding; most listed sequences are background and not binding sites
# Conditions: protein concentration: 200 nM; construct: GST-full length
# How it was run: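 For each ungapped eight-base word taken together with its reverse complement, the Universal PBM Analysis Suite assigned an E-score. Binding data came from GST-tagged yeast transcription factors, applied at about 100-200 nM, on universal all-10-mer Agilent arrays made double-stranded by primer extension. Fluorescent anti-GST marked bound protein, and scans were normalised with masliner.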
row,Sequence,PBM E-score
1,CAACGGCC,-0.0502
2,ACTCACTG,-0.267
3,AAGTGTAA,-0.116
4,AACAACAA,0.0166
5,AGCCATTG,-0.11
6,AAAGTCAT,-0.118
7,GAGCGGAA,0.156
8,AATGTGAC,-0.175
9,AGATCCAC,-0.221
10,AGGACTAA,-0.214
11,CACGAGGG,0.189
12,ACAGGTAG,-0.0884
13,AGCAAGGA,-0.0928
14,ATCAGACG,0.0743
15,ACTGCGGG,-0.211
16,AGAATAGC,-0.137
17,TGGAGCAA,-0.0481
18,AGTCGTAC,0.46
19,ATCCTCGG,0.212
20,ACGAGGGG,0.365
21,GCGTTGAC,-0.107
22,CCCAATAA,-0.161
23,TACTGCTA,-0.0618
24,AAACACAT,0.0238
25,ATCTGCTC,-0.124

row,Sequence,PBM E-score
1,AGGGCCCT,-0.121
2,GCAGGTTA,-0.00079
3,AAATGACT,-0.344
4,GAGGCAAC,-0.128
5,TCCACCGA,-0.127
6,CGCTGCTA,0.033
7,AAGGGATG,-0.124
8,ACGTCCAA,-0.0607
9,GTTGGTAA,0.196
10,CGTGGAGA,-0.141
11,GGCTTAAC,0.126
12,ACGATTCG,0.35
13,ATGAGCGG,-0.0285
14,CCCAGGTA,-0.168
15,CAATGGGC,-0.209
16,CCCCTCGA,0.026
17,GCTTATAC,0.277
18,TCTGGAAA,-0.0896
19,AGAGAGTA,-0.0862
20,AGTGCCTC,-0.0589
21,CGCGATAG,0.135
22,GAGAACTC,-0.0846
23,AAACGCAC,0.219
24,ATCGTACG,0.437
25,AACAGCCC,-0.179

row,Sequence,PBM E-score
1,CCGACTAA,0.0673
2,TCTCGTCA,0.0737
3,ATCTATGC,0.0159
4,GATCTCAC,-0.227
5,GACACTAA,0.0931
6,AAGATCAA,-0.0315
7,AATAGCCA,-0.0579
8,AATTAATC,0.105
9,GTTGCAAA,0.131
10,CTCCGCGC,-0.0267
11,AGGGTCTC,-0.259
12,CTGCATGC,0.0116
13,TTACCTAA,0.0108
14,GAATATTA,0.0848
15,GGGCGTAC,0.214
16,CTGCGGTA,0.0627
17,ACCATTTA,0.0636
18,CCAATGCG,-0.082
19,GTTGAAGA,-0.00558
20,GACCAAGA,-0.054
21,CAGACGTA,0.0611
22,CAGGGATA,-0.137
23,TTCACAAA,-0.108
24,AAACCGCC,-0.0833
25,CCCAGCTA,-0.152

row,Sequence,PBM E-score
1,GCTCATCC,0.0839
2,CGCACGTA,0.168
3,ACGCCCCC,-0.113
4,GAGATTGA,-0.126
5,ACCTGGAA,-0.0824
6,ATGCCGCA,-0.0303
7,CATTCCCA,-0.146
8,AGACGACA,0.0702
9,ACCATAAG,-0.247
10,ATATCTGA,-0.084
11,CCACCCCG,-0.0383
12,CCTCAAAC,0.159
13,ACTCTTCT,-0.0892
14,GAAGAGGA,-0.175
15,CTAGCTCC,-0.0403
16,AGGTCCGA,0.197
17,ATTCTAAG,0.0558
18,AATGTCTC,-0.115
19,AACAATGA,-0.00952
20,CCCTCCCC,-0.0555
21,TCATTGCA,-0.0625
22,AGAGTAAT,-0.0617
23,TCTCAACA,-0.114
24,GAACTCGC,0.218
25,CCCGCGCC,-0.046

row,Sequence,PBM E-score
1,AGTAGCCG,-0.11
2,ACTTCCAG,-0.223
3,AGAACGTA,0.178
4,AATTAGCG,0.104
5,CGCCCAAC,-0.0505
6,CAATGCGA,0.0981
7,ACCGCTGG,-0.164
8,AGGGACAG,-0.161
9,GGACCAGA,-0.184
10,GGTCTAAA,-0.0254
11,CTCCACCA,-0.165
12,ACATACGG,0.321
13,TAAGACCA,-0.199
14,CGAGCTGC,0.214
15,ACTTTCTA,-0.153
16,GAAACAAC,0.095
17,TACAGGGA,-0.136
18,AAGCGACC,0.278
19,CGTCGGAC,0.101
20,AACGACCA,0.424
21,AGAACTGG,-0.117
22,GGGGGCTA,-0.173
23,ATGCTTCA,-0.257
24,GGAGGACA,-0.0806
25,AATACTGA,-0.00735

row,Sequence,PBM E-score
1,AATGGCAT,0.113
2,AAAGGTGC,-0.112
3,GGGACTAA,-0.202
4,AGCTGCTC,-0.218
5,AAGTCCAA,-0.206
6,ATCGTACC,0.479
7,CAGCTTAC,0.00572
8,AATTTCCA,-0.0624
9,CACGCAAA,-0.049
10,GGTAGGCA,-0.344
11,AAAAGGGC,-0.214
12,AGGTAGAA,-0.0905
13,CGAGTTGA,0.184
14,GCGCATCA,-0.229
15,GCACGGAA,-0.094
16,CACTGTCC,0.0229
17,CTCTCCGC,-0.147
18,CATTTGAA,-0.126
19,AACTGATA,0.131
20,CTGCAACC,-0.218
21,GTACTTTA,0.211
22,CCCAGCCG,-0.135
23,AATAGATG,0.197
24,GTTAGTTA,0.191
25,CGTGCTGC,-0.115

row,Sequence,PBM E-score
1,ACACTCGA,0.0864
2,GCCGAGCC,-0.0669
3,CTACCCGA,0.183
4,ATGACCGA,0.169
5,AGAGGCGG,-0.109
6,CGGGCACC,-0.0935
7,AAACTCTG,-0.1
8,GGTACCAA,0.0788
9,ATTTTCTA,-0.0481
10,AAAAGTTC,-0.0456
11,TAGTGAAA,-0.182
12,CCCTAGGC,-0.279
13,GGACCTTA,-0.0892
14,CGTACTAG,0.342
15,AGGGTCGG,0.0967
16,AGAGCACT,-0.0265
17,CGGGTATA,0.16
18,TATACCCA,-0.00416
19,ATGCGTAA,0.131
20,CCCTTGCG,-0.273
21,AGTGTATC,0.0671
22,CGCAAGTC,-0.0333
